Laboratory results published in the RNAGym collection of RNA variant scans (doi:10.1093/nar/gkz1192).
The source gives no read counts; variants with many changes may rest on few reads.

B1: CPEB3 Ribozyme (parent)
chain: UAACAGGGGGCCACAGCAGAAGCGUUCACGUCGCAGCCCCUGUCAGAUUCUGGUGAAUCUGCGAAUUCUGCUGUAUAUCUC

Variants of: B1
Test: self-cleavage, relative activity (ratio to wild type); higher = more cleavage; in vitro, sequencing
Procedure, shortened: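 Relative activity compares each variant's cleaved/total read fraction with that of the unmutated ribozyme. To get these fractions, barcoded CPEB3 ribozyme libraries from rounds of error-prone PCR were transcribed with T7 RNA polymerase for 5 hours at 37°C and then given 15 min of DNase I treatment before EDTA was added. The RNAs were reverse transcribed with template switching and sequenced on Illumina, and DNA sequencing linked barcodes to variants. A minimum of 5 reads applied, and three batches were averaged.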

Row | Variant | self-cleavage
1 | G33A A35U U41C U69G | 0.08
2 | C34A A35U U48A U58A | 0.1
3 | C32A U41G A57G | 0.07
4 | C34A A57G U58C U66C | 0.07
5 | C32U U48A A56G | 0.11
6 | G33U A35U U41G U48G U60A | 0.16
7 | G33A U41A C68U | 0.17
8 | C32U A47G U72A A77U | 0.05
9 | C34U U41C A64G U78C U80A | 0.15
10 | G33U A35U U51G A65G U69A | 0.13
11 | C32U A47G U51G | 0.58
12 | G33A U51C A64G | 0.15
13 | C34U C44U U54C | 0.13
14 | C32G U74C U78C | 0.14
15 | C32U A64U U67C | 0.15
16 | C34U A35U C39A A64G | 0.1
17 | G33A U41C U72C | 0.08
18 | C34U U41C A65G U74C | 0.12
19 | C34G G52A U60C G70U A77G | 0.11
20 | G33U A45G U54A A65U U67C | 0.14
21 | G33A U41A A57G A75U | 0.07
22 | C34U U41A U51A U69C | 0.06
23 | C32U A35C G63A U67C A75U | 0.12
24 | G33A A47G A57G A64G | 0.06

Row | Variant | self-cleavage
25 | G33A A77G U80A | 0.21
26 | C32U U60A U69C | 0.12
27 | G33C U51C U67C U69C | 0.07
28 | C32U U43A A45G G55U | 0.17
29 | C32G U41A U69C | 0.27
30 | G33A U43C U54C | 0.31
31 | C32A U60C A64G | 0.1
32 | G33A U43C A64U U72A | 0.09
33 | G33U A35U U54A A57G | 0.13
34 | G33A A35G U43C U51A U60C A64G | 0.08
35 | C32A U51C U72C | 0.08
36 | C34U C40G U43C A45U U49A U54C | 0.07
37 | G33A A45U U69A | 0.17
38 | C32U U41C U43C A56U A57G | 0.16
39 | G33A G61U A64U U72C | 0.09
40 | C34A A45G A75G | 0.23
41 | C32U U41C U51C A75G U76C | 0.25
42 | C34U A65G U72C | 0.16
43 | G33A A45U U54C | 0.15
44 | G33A U54C U66C | 0.14
45 | C34G U69C U74C | 0.2
46 | C32U U49A C71U | 0.13
47 | G33U A45C A56G U72C U78C | 0.18
48 | C34A A47G A56G | 0.14

Row | Variant | self-cleavage
49 | C32A U48C U54C U58C U67C U72A | 0.21
50 | G33U G42U C71U U80C | 0.12
51 | G33A C37G U54A U69A C79G C81G | 0
52 | G33A A65G U67C U69C | 0.16
53 | G33A U48C U51C C68A | 0.09
54 | C32A U48C U78C | 0.22
55 | C34G G53A U58A | 0.11
56 | C34U G53A A56G | 0.42
57 | C34G U48C U58C | 0.1
58 | C32U G36A C40A G53C | 0.07
59 | C34G A57G U60C U72A | 0.12
60 | C32U U43G U66C U76C | 0.07
61 | C32U A35G G36A | 0.41
62 | G33U A35G U80C | 0.34
63 | G33A C38G U58C | 0.4
64 | G33U U41C A47U U66C | 0.14
65 | G33A U41C C71G | 0.08
66 | C34U U49C A56U C62U U74C | 0.11
67 | G33A C38U A57C U69C | 0.06
68 | G33A U43C U54C U72C U80G | 0.05
69 | C32U A47C U72A | 0.11
70 | G33A C38U A56U U80C | 0.09
71 | C34U U54A U80C | 0.61
72 | C32U C40A A64G | 0.12

Row | Variant | self-cleavage
73 | C32G A47U U72C A75G | 0.09
74 | G33A G36A A47U A64U | 0.08
75 | C34A C38U U43C | 0.18
76 | G33A C37U U74A | 0.11
77 | G33A A47G A77U | 0.38
78 | G33A A47G A77G | 0.41
79 | C34U A35U U41A | 0.21
80 | C32U A35G A77U C79U | 0.59
81 | C34G A47C U54C | 0.14
82 | G33U U41C U49C U66C | 0.13
83 | C32G A64G U74C | 0.15
84 | G33U A45U A56G | 0.15
85 | C32A U43C G52A U78A | 0.08
86 | C32U U48C C68G | 0.14
87 | C34U U43C A77C | 0.11
88 | G33A A35G U49C A57U U80C | 0.01
89 | G33C G46U U51A | 0.11
90 | G33U C39U U74A | 0.1
91 | G33A C39U U43C A45U | 0.08
92 | C34G A45U C59A | 0.1
93 | G33C C38U U41C G55U | 0.13
94 | C32A U41C U43C U78A U80C | 0.09
95 | G33A C37G U48C | 0.07
96 | C32U U49A A64U U66C | 0.1

Row | Variant | self-cleavage
97 | C32U U43G A75G U76C | 0.12
98 | G33A U43A A45G U49C G53A | 0.07
99 | C34G C68A A77G | 0.07
100 | C32U C71U A75G U80C | 0.11
101 | G33U A35U U66C U72C | 0.16
102 | G33A A45U A56G | 0.17
103 | C34G U48C U54A | 0.12
104 | G33C A35G C62U | 0.26
105 | C32U G46A U78A | 0.19
106 | G33U A45G U66C U72A | 0.05
107 | C34U A56G C62A | 0.1
108 | G33A A47G U49C U60C | 0.39
109 | G33U A35G A57G U60C U66C U67C U80C | 0.04
110 | C34A C40U U54C | 0.1
111 | C32U G36U C50A U66C | 0.12
112 | G33A G42C U43A G70A | 0.15
113 | C34G A45U A56G A64G U67C | 0.08
114 | C32U U58C U78A | 0.15
115 | C32U C34G G61A | 0.07
116 | G33A A35U U41A U60G | 0.16
117 | G33C A65U C68U | 0.1
118 | C32G G46A A56G C59U | 0.07
119 | C34A U43C U48C | 0.08
120 | G33U G52A U69G U78A | 0.16

Row | Variant | self-cleavage
121 | G33A C38A A45G A47G A56G | 0.42
122 | G33C C38A A45G U49C U80C | 0.08
123 | G33A C44A A45G G52A U78A | 0.17
124 | C34G A45U U51C U69C U72C | 0.12
125 | G33A U60C U78C | 0.13
126 | C34A A45G A56U G61C | 0.1
127 | G33A G63A A64G U67C | 0.06
128 | C32A U51C A56G U69C C71U | 0.06
129 | G33U U72C U74A | 0.11
130 | G33A U41A A57G U58C U72C U76A | 0.1
131 | G33A A35G A64U | 0.11
132 | G33A C62A A77U | 0.21
133 | C32U U58C U67C U69C C81U | 0.15
134 | C32U U48C U54A U67A | 0.12
135 | C34G U41C A56G U78C | 0.08
136 | G33A U41A A64G | 0.21
137 | G33A U41A A64U | 0.12
138 | G33A U41C A47G U69C | 0.13
139 | G33A A35G U67C U76C | 0.33
140 | C34U C39A A57G A64G U76A | 0.05
141 | C32U U48G U54C | 0.13
142 | C32U U48C U66C U69A | 0.21
143 | C34G A65G U74A | 0.08
144 | G33A G53U U58C U60C U69C | 0.07

Row | Variant | self-cleavage
145 | C32A U43A U66C | 0.28
146 | C32A U41C A75G U78C | 0.08
147 | G33C A47U A64U | 0.12
148 | C32U U49C C68U | 0.05
149 | G33C U41A U49C A75C | 0.07
150 | C32U A56C U66C U72C | 0.08
151 | G33U C38U C59U | 0.37
152 | C34U A35G G55U U69C U76C | 0.13
153 | C34G U41A U43A | 0.39
154 | C32A U41G U51C G63A A65G U74A | 0.15
155 | G33A U69A U72C | 0.18
156 | C34A A45U U48C U67A | 0.18
157 | G33U A35U U72C | 0.12
158 | G33A U51G A57G A64G U80C | 0.09
159 | C32A U43A U66C U74C | 0.09
160 | G33C C44A A64U | 0.13
161 | C34U A56U A57U U72A U80C | 0.1
162 | G33C U41C U72C | 0.14
163 | G33A A35C A65G U74A | 0.07
164 | C32U A45G A64U U72A | 0.08
165 | G33A C34U A47G U49C U60G U72C | 0.07
166 | C32U A56G U72C | 0.17
167 | C32U A56G U72A | 0.14
